Assay results from PMC4752240.
Results are given in words; binding and its absence hold for the method and conditions named. Some results given as binding are weak or reduced against the parent protein; the word gives no strength. Tags and fused reporters may be left off the sequences shown.

Assays:
Test in all cases: two-hybrid; bait fused with the GAL4 DNA binding domain (pDEST32), prey fused with the GAL4 activation domain (pDEST22); mating of yeast strains AH109 and Y187; growth on -His (weak interaction) or -His -Ade (strong interaction); three replicates
[1] = target: T1, APC6, yeast two-hybrid fusion (UniProt B3DNN5)
T1 sequence: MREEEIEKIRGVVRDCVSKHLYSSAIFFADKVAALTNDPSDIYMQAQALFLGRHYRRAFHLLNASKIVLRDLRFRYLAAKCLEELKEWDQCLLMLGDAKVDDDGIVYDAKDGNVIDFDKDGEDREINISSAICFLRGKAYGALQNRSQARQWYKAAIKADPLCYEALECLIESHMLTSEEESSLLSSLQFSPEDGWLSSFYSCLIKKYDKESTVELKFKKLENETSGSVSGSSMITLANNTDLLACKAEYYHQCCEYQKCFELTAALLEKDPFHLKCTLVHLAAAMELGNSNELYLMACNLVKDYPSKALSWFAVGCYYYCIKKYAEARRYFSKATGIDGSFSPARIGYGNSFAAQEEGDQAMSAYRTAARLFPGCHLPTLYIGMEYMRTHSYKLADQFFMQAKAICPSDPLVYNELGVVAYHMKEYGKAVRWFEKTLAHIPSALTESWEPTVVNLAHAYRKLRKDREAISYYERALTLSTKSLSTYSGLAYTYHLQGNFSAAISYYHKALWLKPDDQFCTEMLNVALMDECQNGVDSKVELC

[2] = target: T2, CDC27b (HOBBIT/APC3b), yeast two-hybrid fusion (UniProt Q8LGU6)
T2 sequence: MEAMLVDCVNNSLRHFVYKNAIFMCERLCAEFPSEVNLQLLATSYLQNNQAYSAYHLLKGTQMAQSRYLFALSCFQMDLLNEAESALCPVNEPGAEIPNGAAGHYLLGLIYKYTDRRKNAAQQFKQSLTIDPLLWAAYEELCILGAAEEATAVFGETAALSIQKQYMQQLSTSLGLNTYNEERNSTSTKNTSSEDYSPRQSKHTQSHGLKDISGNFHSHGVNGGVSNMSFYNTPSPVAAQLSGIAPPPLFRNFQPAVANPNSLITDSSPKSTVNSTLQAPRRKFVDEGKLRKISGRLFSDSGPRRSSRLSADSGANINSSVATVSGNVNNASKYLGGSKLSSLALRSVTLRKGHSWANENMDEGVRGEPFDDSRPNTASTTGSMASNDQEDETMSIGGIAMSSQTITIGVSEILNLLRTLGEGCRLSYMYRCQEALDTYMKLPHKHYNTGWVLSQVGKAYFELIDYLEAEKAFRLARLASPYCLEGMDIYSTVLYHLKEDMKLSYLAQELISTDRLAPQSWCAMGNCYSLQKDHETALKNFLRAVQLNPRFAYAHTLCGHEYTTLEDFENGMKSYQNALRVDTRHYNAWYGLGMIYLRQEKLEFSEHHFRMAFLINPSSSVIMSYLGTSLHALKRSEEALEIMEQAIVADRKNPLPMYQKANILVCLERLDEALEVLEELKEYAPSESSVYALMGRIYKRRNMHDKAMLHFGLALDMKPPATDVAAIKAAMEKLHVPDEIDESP

[3] = target: T3, PANS1, yeast two-hybrid fusion (UniProt Q9LJG6)
T3 sequence: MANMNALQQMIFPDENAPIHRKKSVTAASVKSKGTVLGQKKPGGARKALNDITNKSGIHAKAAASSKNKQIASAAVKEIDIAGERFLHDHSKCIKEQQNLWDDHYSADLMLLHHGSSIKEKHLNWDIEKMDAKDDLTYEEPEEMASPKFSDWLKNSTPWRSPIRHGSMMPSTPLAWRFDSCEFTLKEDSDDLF

[4] = target: T4, APC5, yeast two-hybrid fusion (UniProt Q8H1U4)
T4 sequence: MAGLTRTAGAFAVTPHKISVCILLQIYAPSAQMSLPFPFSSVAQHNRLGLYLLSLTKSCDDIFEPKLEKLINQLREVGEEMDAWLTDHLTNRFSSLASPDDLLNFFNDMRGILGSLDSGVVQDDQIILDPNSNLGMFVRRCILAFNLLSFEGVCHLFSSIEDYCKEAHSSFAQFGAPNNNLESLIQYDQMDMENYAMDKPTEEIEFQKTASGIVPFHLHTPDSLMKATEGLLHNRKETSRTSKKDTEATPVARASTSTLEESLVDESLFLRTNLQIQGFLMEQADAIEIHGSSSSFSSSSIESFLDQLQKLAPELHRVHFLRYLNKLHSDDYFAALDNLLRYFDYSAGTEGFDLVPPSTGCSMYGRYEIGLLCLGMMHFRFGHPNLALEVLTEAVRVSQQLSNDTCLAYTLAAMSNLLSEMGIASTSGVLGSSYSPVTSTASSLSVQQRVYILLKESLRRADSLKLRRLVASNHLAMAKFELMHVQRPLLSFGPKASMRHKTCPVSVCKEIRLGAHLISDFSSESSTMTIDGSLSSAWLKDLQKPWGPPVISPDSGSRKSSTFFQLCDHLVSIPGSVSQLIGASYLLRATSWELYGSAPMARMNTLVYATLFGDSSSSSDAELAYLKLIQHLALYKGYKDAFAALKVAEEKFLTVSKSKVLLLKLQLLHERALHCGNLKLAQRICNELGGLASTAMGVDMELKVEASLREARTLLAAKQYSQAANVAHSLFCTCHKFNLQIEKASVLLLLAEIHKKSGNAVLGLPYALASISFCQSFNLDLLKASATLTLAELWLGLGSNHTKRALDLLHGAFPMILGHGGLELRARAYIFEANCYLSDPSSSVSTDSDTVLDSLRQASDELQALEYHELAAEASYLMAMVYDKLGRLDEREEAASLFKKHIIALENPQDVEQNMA

binding [1]: no binding
binding [2]: binds
binding [3]: no binding
binding [4]: no binding
B1: TDM1 (THREE DIVISION MUTANT1), yeast two-hybrid fusion (protein, UniProt Q9SUC3 1-434)
chain: MCPCVERRAPPGVYYTPPPARTSDHVAAMPMTERRRPPYSCSSSSERRDPFHIVHKVPSGDSPYVRAKHAQLIDKDPNRAISLFWTAINAGDRVDSALKDMAVVMKQLGRSDEGIEAIKSFRYLCSFESQDSIDNLLLELYKKSGRIEEEAVLLEHKLQTLEQGMGFGGRVSRAKRVQGKHVIMTIEQEKARILGNLGWVHLQLHNYGIAEQHYRRALGLERDKNKLCNLAICLMRMSRIPEAKSLLDDVRDSPAESECGDEPFAKSYDRAVEMLAEIESKKPEADLSEKFYAGCSFVNRMKENIAPGTANKNYSDVSSSPASVRPNSAGLYTQPRRCRLFEEETRGAARKLLFGKPQPFGSEQMKILERGEEEPMKRKKLDQNMIQYLHEFVKDTADGPKSESKKSWADIAEEEEAEEEEEERLQGELKTAEM
